Data: PubChem BioAssay AID1671193 (National Center for Advancing Translational Sciences (NCATS), 2021)
About 180 (0.12%) of roughly 150,000 compounds were called active. Inconclusive means that the source gave no clear call. Such entries were picked first, then a sample of the others. Calls follow the shape of the dose curve; as a rule, active = well fitted cell-killing curve with a large enough effect; inconclusive = small, poorly fitted or top-dose-only effect, or effect the other way; inactive = flat fitted curve, though single readings scatter. Where the call is inconclusive, the potency comes from a doubtful curve fit.
Potency is read from the fitted curve at half-maximal effect; tags tell the direction and shape of the fitted curve.

Test: GF-AFC viability counterscreen for inhibitors of alpha-synuclein gene (SNCA) expression; also: nearly all actives have a fitted effect of over 30% in size
Details: HEK-293-SNCA-luc viability, GF-AFC fluorescence, 24 h; series mostly up to 57.1 µM
Summary of the method: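 HEK-293-SNCA-luc cells (1500/well) plated 24 h, then exposed 24 h to a dilution series; GF-AFC added 30 min at 37C, fluorescence 405/540 nm; normalised to medium-only and DMSO wells, Hill fit.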
For `CC1=C[C@@H](CN(C)CCO)[C@H](C(C)C)C[C@H]1Cc1nnc(-c2ccc(C)cc2)o1`, the Potency was inconclusive: 25.1 µM [cytotoxic, partial curve, poor fit]. In the case of `CC(C)c1nc2c(c(-c3ccc(O)cc3)n1)CCN(C(=O)c1cccc(Cl)c1)CC2`, the Potency was inconclusive: 20 µM [cytotoxic, partial curve, poor fit]. With `Cc1ccc2nc3c(cc(C(=O)NCC4CCCO4)c(=N)n3C(C)C)c(=O)n2c1` (stereo not given) the Potency was inconclusive: 14.1 µM [rising, partial curve]. In the case of `CC(C)c1ccc(C2=CC(c3ccc(C(C)C)cc3)n3nnnc3N2)cc1` (stereo not given), the Potency was inconclusive: 25.1 µM [rising, partial curve]. In the case of `COCC(=O)NC[C@@H]1C=C(C)[C@H](Cc2nc3ccc(C)cc3[nH]2)C[C@H]1C(C)C`, the Potency was inconclusive: 14.1 µM [cytotoxic, partial curve, poor fit]. For `Cc1ccc(/C=C/c2onc(C)c2S(=O)(=O)N2CCC(C(=O)N3CCC(N(C)C(C)C)CC3)CC2)cc1`, the Potency was inconclusive: 35.5 µM [cytotoxic, single point]. For `CCC(CC)C(=O)N1CC[C@H]2NC(=O)N(c3ccc(C(C)C)cc3)C(=O)[C@H]21`, the Potency was “inactive”. For `CC(C)CN1C(=O)c2cccn2CC1CNC(=O)c1n[nH]c(=O)c2ccccc12` (stereo not given), the Potency was “inactive”. In the case of `CCOc1ccc(-c2cc3c(=O)n(CCNC(=O)c4cccc(Cl)c4)ccn3n2)cc1`, the Potency was “inactive”. In the case of `Cc1ccc(NC(=O)c2cc(-c3ccc[nH]3)n[nH]2)cc1C`, the Potency was “inactive”. In the case of `CCOc1ccccc1NC(=O)C1c2ccccc2C(=O)N(CCOC)C12CCCCC2` (stereo not given), the Potency was inconclusive: 28.2 µM [cytotoxic, partial curve, poor fit]. In the case of `O=C(CCC[C@H]1NC[C@@H]2C[C@H]1CN(Cc1ccccc1)C2)NCCCN1CCCc2ccccc21`, the Potency was “inactive”. In the case of `O=S(=O)(c1cccc(F)c1)N1CCC(OC2CCN(Cc3ccccc3)CC2)CC1`, the Potency was “inactive”. For `CC(C)c1noc(-c2cccn3c(CNC(=O)c4cccc(F)c4)nnc23)n1`, the Potency was “inactive”. For `O=C(NCCc1ccc(Cl)cc1)c1nc(-c2ccc(Cl)nc2)c2ccccn12`, the Potency was inconclusive: 39.8 µM [cytotoxic, partial curve, poor fit]. With `O=C(NC1CCCN(c2cc(-c3ccc(F)cc3)[nH]n2)C1)c1cc(Cl)ccc1F` (stereo not given) the Potency was inconclusive: 25.1 µM [cytotoxic, single point]. In the case of `CN1CCc2c(c3ccccc3n2Cc2ccc(C(=O)NO)cc2)C1`, the Potency was inconclusive: 33.6 µM [cytotoxic, partial curve, poor fit]. In the case of `CN(C)c1ncc2nc(-c3cccs3)c(=O)n(CCC#N)c2n1`, the Potency was inconclusive: 11.2 µM [rising, partial curve]. With `O=C(Nc1ncc(-c2cccc(F)c2)c2c1OCC2)c1c[nH]c2ccccc12` the Potency was “inactive”. In the case of `Cc1ccc2nc3n(c2c1)[C@@H](CNS(=O)(=O)Cc1ccccc1)COC3`, the Potency was inconclusive: 39.8 µM [cytotoxic, partial curve, poor fit]. For `COc1ccccc1Oc1c(NS(=O)(=O)c2ccc(C)cn2)nc(-c2ccncc2)nc1OC`, the Potency was “inactive”. In the case of `COc1ccc(-c2nc(C)c(CCNS(=O)(=O)c3cc(C)c(C)cc3C)s2)cc1`, the Potency was inconclusive: 39.8 µM [cytotoxic, single point]. With `COc1cccc(CN2Cc3nc(-c4cc(Cl)ccc4OC)ccc3OCC2=O)c1` the Potency was “inactive”. In the case of `Cc1cc(C)cc(NC(=O)N2CCCC2c2nncn2C2CCCC2)c1` (stereo not given), the Potency was inconclusive: 10 µM [cytotoxic, partial curve, poor fit]. In the case of `CCC1=C(C(=O)OC)C(c2ccccc2OC)N2C(CC(=O)N3CCCC3)=CSC2=N1` (stereo not given), the Potency was inconclusive: 7.08 µM [cytotoxic, single point]. With `Cc1nn2c(c1-c1ccccc1Oc1ccccc1)N(Cc1cccc(C#N)c1)CCC2` the Potency was inconclusive: 5.01 µM [cytotoxic, partial curve, poor fit]. In the case of `CN(Cc1ccc(-c2ccccc2)cc1)Cc1cccc(OC(F)(F)F)c1`, the Potency was inconclusive: 7.08 µM [rising, single point]. In the case of `CC1Oc2ccc(NC(=O)c3ccccc3)cc2CN(Cc2ccc(Cl)cc2)C1=O` (stereo not given), the Potency was inconclusive: 6.31 µM [cytotoxic, single point]. With `Cc1ccccc1-n1c(SCc2ccc(Cl)cc2)nc2[nH]ncc2c1=O` the Potency was inconclusive: 20 µM [cytotoxic, partial curve, poor fit]. With `O=C(NC1CCN(c2nc3ncccc3o2)CC1)C1CCCC1` the Potency was “inactive”. For `O=C(NC1CCCCC1)c1ccc2nnc(-c3ccc(F)cc3)n2c1`, the Potency was “inactive”. For `CCCCN(C)C(=O)C1CCCN(c2ncnc3onc(C)c23)C1` (stereo not given), the Potency was inconclusive: 12.6 µM [cytotoxic, partial curve, poor fit]. For `O=C(O)Cc1ccc2oc(-c3ccc(NC(=O)/C=C/c4ccc(Br)cc4)c(F)c3)nc2c1`, the Potency was inconclusive: 0.67 µM [rising, full curve]. With `Cc1nnc(N2CCC(C(=O)NCCc3ccccc3Cl)CC2)c2nn(-c3ccccc3)c(C)c12` the Potency was inconclusive: 0.282 µM [rising, full curve, poor fit]. For `COc1ccccc1-c1cccc(CN2CCCC(C(=O)N3CCN(Cc4ccccc4)CC3)C2)c1` (stereo not given), the Potency was “inactive”. For `CCOc1ccccc1N(CC(=O)NCCSc1ccccc1)S(=O)(=O)c1ccccc1`, the Potency was inconclusive: 8.91 µM [cytotoxic, partial curve, poor fit]. For `Cc1cccc(N2CCN(C(=O)c3cn(CC(C)C)c(=O)c4c3c3ccccc3n4C)CC2)c1C`, the Potency was inconclusive: 0.282 µM [rising, full curve, poor fit]. For `COc1cc2nccc(Oc3ccc(NC(=O)NC4CC4)c(Cl)c3)c2cc1C(N)=O`, the Potency was inconclusive: 5.41 µM [cytotoxic, full curve]. In the case of `CC(C)c1nc2c(c(-c3ccc(Cl)cc3)n1)CCN(Cc1ccc(C(F)(F)F)cc1)CC2`, the Potency was “inactive”. With `COc1ccccc1CC(=O)N1CCCc2ncc(C(=O)Nc3cccc(Cl)c3)cc21` the Potency was inconclusive: 56.2 µM [cytotoxic, single point].
